This passage reports binding results from PMC10480448.

Amino acid sequences for entries named in this document (tags omitted). A change or cut given only in a name is not applied to a line headed by its entry.
UniProt Q86WV6: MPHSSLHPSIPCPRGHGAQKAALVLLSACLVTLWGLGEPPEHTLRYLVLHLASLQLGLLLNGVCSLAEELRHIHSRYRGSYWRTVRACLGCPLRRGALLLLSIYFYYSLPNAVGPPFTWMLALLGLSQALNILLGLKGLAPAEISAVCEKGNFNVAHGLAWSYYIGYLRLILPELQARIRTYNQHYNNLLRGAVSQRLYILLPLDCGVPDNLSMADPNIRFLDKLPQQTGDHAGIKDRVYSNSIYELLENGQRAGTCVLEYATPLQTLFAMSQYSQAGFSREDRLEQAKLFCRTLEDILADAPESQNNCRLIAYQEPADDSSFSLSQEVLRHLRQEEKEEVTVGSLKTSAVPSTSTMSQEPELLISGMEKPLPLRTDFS

The target of assay [1] is MYC-tagged STING (WT), Q86WV6. Nature of the assay: co-IP; HEK293T cells transfected with tagged proteins; whole-cell extracts incubated with anti-myc beads, washed five times with low-salt lysis buffer, immunoblot; some samples treated with Kyn or cGAMP. As to conditions: remark: other sources report otherwise.
Another assay deals with MYC-STING (K236R) (UniProt Q86WV6). The description is as above.

No constants are given. Whether binding was seen depends on the method and setting. Binding seen in cells or lysates may run through a third protein. Some results given as binding are weak or reduced against the parent protein; the word gives no strength. Where a sequence is shown, tags or fusion partners need not be part of it.

B1: FLAG-TBK1 (WT), Q9UHD2 1-729 (protein)
chain: MQSTSNHLWLLSDILGQGATANVFRGRHKKTGDLFAIKVFNNISFLRPVDVQMREFEVLKKLNHKNIVKLFAIEEETTTRHKVLIMEFCPCGSLYTVLEEPSNAYGLPESEFLIVLRDVVGGMNHLRENGIVHRDIKPGNIMRVIGEDGQSVYKLTDFGAARELEDDEQFVSLYGTEEYLHPDMYERAVLRKDHQKKYGATVDLWSIGVTFYHAATGSLPFRPFEGPRRNKEVMYKIITGKPSGAISGVQKAENGPIDWSGDMPVSCSLSRGLQVLLTPVLANILEADQEKCWGFDQFFAETSDILHRMVIHVFSLQQMTAHKIYIHSYNTATIFHELVYKQTKIISSNQELIYEGRRLVLEPGRLAQHFPKTTEENPIFVVSREPLNTIGLIYEKISLPKVHPRYDLDGDASMAKAITGVVCYACRIASTLLLYQELMRKGIRWLIELIKDDYNETVHKKTEVVITLDFCIRNIEKTVKVYEKLMKINLEAAELGEISDIHTKLLRLSSSQGTIETSLQDIDSRLSPGGSLADAWAHQEGTHPKDRNVEKLQVLLNCMTEIYYQFKKDKAERRLAYNEEQIHKFDKQKLYYHATKAMTHFTDECVKKYEAFLNKSEEWIRKMLHLRKQLLSLTNQCFDIEEEVSKYQEYTNELQETLPQKMFTASSGIKHTMTPIYPSSNTLVEMTLGMKKLKEEMEGVVKELAENNHILERFGSLTMDGGLRNVDCL
For B1, in assay [1], the binding entry is on record as “binds”.

B2: FLAG-TBK1 (WT) (protein, UniProt Q9UHD2 1-729)
chain: MQSTSNHLWLLSDILGQGATANVFRGRHKKTGDLFAIKVFNNISFLRPVDVQMREFEVLKKLNHKNIVKLFAIEEETTTRHKVLIMEFCPCGSLYTVLEEPSNAYGLPESEFLIVLRDVVGGMNHLRENGIVHRDIKPGNIMRVIGEDGQSVYKLTDFGAARELEDDEQFVSLYGTEEYLHPDMYERAVLRKDHQKKYGATVDLWSIGVTFYHAATGSLPFRPFEGPRRNKEVMYKIITGKPSGAISGVQKAENGPIDWSGDMPVSCSLSRGLQVLLTPVLANILEADQEKCWGFDQFFAETSDILHRMVIHVFSLQQMTAHKIYIHSYNTATIFHELVYKQTKIISSNQELIYEGRRLVLEPGRLAQHFPKTTEENPIFVVSREPLNTIGLIYEKISLPKVHPRYDLDGDASMAKAITGVVCYACRIASTLLLYQELMRKGIRWLIELIKDDYNETVHKKTEVVITLDFCIRNIEKTVKVYEKLMKINLEAAELGEISDIHTKLLRLSSSQGTIETSLQDIDSRLSPGGSLADAWAHQEGTHPKDRNVEKLQVLLNCMTEIYYQFKKDKAERRLAYNEEQIHKFDKQKLYYHATKAMTHFTDECVKKYEAFLNKSEEWIRKMLHLRKQLLSLTNQCFDIEEEVSKYQEYTNELQETLPQKMFTASSGIKHTMTPIYPSSNTLVEMTLGMKKLKEEMEGVVKELAENNHILERFGSLTMDGGLRNVDCL
For B2, in the assay with MYC-STING (K236R), the binding entry is reported as “binds”.
